Test results as given in PubChem BioAssay AID1963576 (National Center for Advancing Translational Sciences (NCATS), 2024).
The campaign covered roughly 46,000 compounds. About 60 (0.1%) were called active. About 3% were inconclusive and are not listed. The call rests on the fitted dose curve; in most records, active means well fitted inhibition curve with a large enough effect; inconclusive means small, poorly fitted or top-dose-only effect; inactive means no such curve, though single readings can be large or run the other way. Some of the results follow.

Experiment: Primary qHTS assay for Inhibitors of ovarian cancer metastasis using an organotypic tumor microenvironment (TME) model. Further: nearly all actives have a fitted effect of over 65% in size.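 On activity change, negative = inhibition: plate controls were DMSO wells for no effect and tomatine positive control wells for full effect.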
Settings: SKOV3ip1-GFP adhesion/invasion on 3D omental model, fluorescence; series mostly up to 45.8 µM; activity change, negative = inhibition: at the top concentration
Method in brief: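 A 3D layer of primary human omental fibroblasts, mesothelial cells, fibronectin and collagen I, grown 48 hr, received SKOV3ip1-GFP cells in serum-free medium plus compounds at 0.36-46 umol/L. After 2 hr RT and 16 hr 37 C, fixed adherent GFP cells were counted; normalized to DMSO and tomatine.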

SMILES | activity change, negative = inhibition | outcome
COc1cccc(NC(=O)C(Cc2ccccc2)NS(=O)(=O)c2ccc3c(c2)oc(=O)n3C)c1 (stereo not drawn) | inactive: 0.94% | –
Cc1ccc(N2C(=O)CSC23C(=O)N(CC(=O)Nc2ccc(C(C)C)cc2)c2ccccc23)cc1C (stereo not drawn) | inactive: 22.5% | –
CC(=O)c1cccc(NC(=O)c2noc3c2CCCC3)c1 | inactive: 31.5% | –
CCc1ccccc1N(C)C(=O)c1cc2c(=O)oc3ccccc3c2s1 | inactive: 0.79% | –
COc1ccc(OC)c(NC(=O)c2cnn(-c3ccc(C)cc3)c2C2CCNCC2)c1 | – | inactive
Cc1ccc(C)c(CN2C(=O)c3ccccc3S(=O)(=O)c3ccc(C(=O)N4CCCCC4)cc32)c1 | inactive: 6.45% | –
COc1cc(NC(=O)c2cc(S(=O)(=O)N3CCc4ccccc43)cn2C)cc(OC)c1OC | – | inactive
CC(C)n1c(=N)c(C(=O)NCc2ccccc2)cc2c(=O)n3ccccc3nc21 | inactive: 0.336% | –
COc1ccc(C)cc1NC(=O)N1CCCn2nc(C)cc21 | inactive: 5.11% | –
O=C(C1CCC1)N1CCc2cc(S(=O)(=O)NCc3ccc(F)cc3)ccc21 | – | inactive
CCCCCOC(=O)Nc1nc(=O)n([C@@H]2O[C@H](C)[C@@H](O)C2O)cc1F (stereo partly drawn) | inactive: 4.72% | –
O=C(COc1ccccc1[N+](=O)[O-])N(Cc1ccco1)c1ccccn1 | inactive: -7.44% | –
CC(C)CC(=O)Nc1c(C(=O)N2CCN(c3ccccc3)CC2)oc2ccccc12 | inactive: -5.74% | –
COC(=O)c1ccccc1NC(=O)N1CCc2c(sc3c2CCCC3)C1c1ccc(F)cc1 (stereo not drawn) | inactive: -22.2% | –
O=C(COc1ccccc1)NC1CC(=O)N(c2ccc3c(c2)OCCO3)C1 (stereo not drawn) | inactive: 13.2% | –
COc1ccc(C2C=C(c3ccccc3)Nc3nc(NS(=O)(=O)c4ccc(Cl)cc4)nn32)cc1 (stereo not drawn) | inactive: -13.5% | –
O=C(Cn1c(=O)n(CC2CCC(C(=O)NCCc3ccccc3)CC2)c(=O)c2ccccc21)Nc1cccc(F)c1 (stereo not drawn) | – | inactive
CC(=O)c1cc2c(cc1N/C(=N/S(=O)(=O)c1ccc(Br)cc1)c1ccccc1)OCO2 | inactive: 2.88% | –
COc1ccc(C(=O)Cn2c(=O)c(-c3cc(C)ccc3NC(C)=O)nc3ccccc32)cc1 | – | inactive
COc1ccc(OC)c(NC(=O)/C=C/c2ccc(C)o2)c1 | inactive: -0.469% | –
CCc1cccc(C)c1NC(=O)c1cccc(C(=O)Nc2c(C)cccc2CC)c1 | inactive: -8.74% | –
CCOc1ccc(Nc2nc(-c3c(C)nc4ccccn34)cs2)cc1 | inactive: 12.1% | –
CCOc1ccc(C(=O)c2cn(CC(=O)Nc3ccc(Cl)cc3)c3cc4c(cc3c2=O)OCCO4)cc1 | inactive: -0.923% | –
Cc1ccc(C)c(N2CCN(C(=O)c3noc4c3CCCCC4)CC2)c1 | inactive: 0.916% | –

SMILES | activity change, negative = inhibition | outcome
Cc1ccccc1Cn1c(CN2CCCC(C)C2)nc2c1c(=O)n(C)c(=O)n2C (stereo not drawn) | inactive: 7.22% | –
Cc1ccc(C)c(N2CCN(C(c3ccccc3)c3nnc(-c4ccccc4F)o3)CC2)c1 (stereo not drawn) | inactive: -11% | –
O=C(CCc1nc(-c2cccs2)no1)Nc1cccc([N+](=O)[O-])c1 | inactive: 9.83% | –
CCOc1ccc(-c2ccc(NS(=O)(=O)c3ccc(C)cc3)cc2)nn1 | inactive: -1.07% | –
COc1ccc(CCCc2nnc(SCC(=O)Nc3ccc(C)cc3)o2)cc1 | inactive: -3.47% | –
Cc1ccc(C(=O)Nc2ccc(NC(=O)c3cccs3)cc2)cc1C | inactive: -1.43% | –
Cc1c[nH]c(C=C2C(=O)Nc3ccccc32)c1CCC(=O)O | inactive: -0.521% | –
Cc1cc(Cl)ccc1NC(=O)C(=O)NCc1ccco1 | inactive: -5.2% | –
CCc1cc(C(C)=NOCc2ccc(C3CCCCC3)c(C(F)(F)F)c2)ccc1CN1CC(C(=O)O)C1 | inactive: -2.64% | –
CCOc1ccc(Sc2cc(C(=O)NC(C)c3ccccc3)c3ccccc3n2)cc1 (stereo not drawn) | inactive: -14.2% | –
Cc1ccc(OCC(=O)Nc2cc3nn(-c4ccccc4)nc3cc2C)cc1 | inactive: -5.96% | –
Cc1ccsc1CN(C(=O)COc1ccc(Br)cc1)C1CCS(=O)(=O)C1 (stereo not drawn) | inactive: -1.37% | –
Cc1ccc(C(=O)Nc2sc3c(c2C(=O)NCc2ccco2)CCC(C(C)(C)C)C3)cc1 (stereo not drawn) | inactive: -8.41% | –
O=C(NCc1ccc(F)cc1)c1cc2n(n1)CCCN(Cc1ccc(F)cc1)C2=O | inactive: 5.51% | –
Cc1cc(C)c(NC(=O)Cn2c(=O)n(-c3ccc(CC(=O)NCC4CCCO4)cc3)c(=O)c3ccccc32)c(C)c1 (stereo not drawn) | inactive: 109% | –
Cc1ccc(-c2nc3n(n2)C(=O)CC(c2ccc(Cl)cc2)S3)cc1 (stereo not drawn) | – | inactive
Cc1ccc(OCC(=O)OCc2cc(=O)n3nc(-c4cccs4)sc3n2)cc1C | – | inactive
Cc1ccc(NC(=O)Cn2cnc3sc(C(=O)O)c(C)c3c2=O)cc1Cl | inactive: 1.25% | –
O=C(CSc1nnc(CNC(=O)c2cccc(F)c2)n1-c1ccccc1)Nc1ccccc1F | inactive: 14.1% | –
CN[C@@H](C)C(=O)N[C@H]1CN(C(=O)CC(C)C)CC[C@H]2CC[C@@H](C(=O)NC(c3ccccc3)c3ccccc3)N2C1=O | inactive: -5.23% | –
CCN1CCN(c2nc3c(S(=O)(=O)c4ccc(Br)cc4)nnn3c3ccsc23)CC1 | – | inactive
COc1cc(NC(=O)CN(c2ccc(C)cc2)S(=O)(=O)c2cccc3nonc23)cc(OC)c1 | inactive: -20.2% | –
CCOc1ccccc1C(=O)Nc1ccc(S(=O)(=O)Nc2nc(C)cc(C)n2)cc1 | inactive: 9.85% | –
Cc1ccc2nc(NC(=O)COc3ccc(F)cc3)sc2c1 | inactive: 3.53% | –

SMILES | activity change, negative = inhibition | outcome
O=C(Cn1c(=O)c2cccn2c2ccccc21)NCCc1ccccc1 | – | inactive
CCOc1ccccc1NC(=O)Cn1cc(C(=O)c2cccc(OC)c2)c(=O)c2ccc(C)nc21 | – | inactive
COc1ccc(NC(=O)Cn2c(SCc3cc(C)ccc3C)nc3ccncc32)c(OC)c1OC | – | inactive
Cc1c(CCNC(=O)c2ccc(Br)o2)sc2nc(-c3ccc(F)cc3)nn12 | inactive: -15.4% | –
COc1ccc2c(CNCc3cccs3)c(C(=O)O)n(Cc3ccccc3)c2c1 | – | inactive
CCc1nn(CC(=O)NCCc2ccc(OC)cc2OC)c(=O)c2cc3c(OC)cccc3n12 | inactive: -5.5% | –
CCOc1cc(CNC(=O)C2COc3ccccc3C2)cc(OCC)c1OCC (stereo not drawn) | inactive: 2.22% | –
COc1ccc2c(c1)c1c(c(=O)n(Cc3ccccc3)c(=O)n1CC(=O)NCc1ccccc1Cl)n2C | inactive: -3.45% | –
CCCCCn1c(C(C)NC(=O)c2ccccc2)nc2ccccc21 (stereo not drawn) | inactive: 11.7% | –
COc1ccc(Nc2nc(-c3ccc(C)cc3)nc3ccccc23)c(OC)c1 | inactive: -0.167% | –
CCOc1ccc(-c2nonc2NC(=O)COc2c(C)cc(C)cc2C)cc1OCC | inactive: -6.15% | –
Fc1ccc(-c2noc3ncnc(NCCc4ccccc4)c23)cc1 | – | inactive
Cc1ccc(C)c(N2CCN(C(=O)C3CCCN(S(=O)(=O)c4ccc5c(c4)oc(=O)n5C)C3)CC2)c1 (stereo not drawn) | – | inactive
COc1ccc(S(=O)(=O)Nc2ccc3c(c2)N(C(C)=O)CCC3)cc1F | – | inactive
CCc1ccc(C(=O)c2cn(CC(=O)Nc3ccc4c(c3)OCO4)c3cc(OC)c(OC)cc3c2=O)cc1 | inactive: -8.62% | –
CCOC(=O)C1CCC(CN(Cc2cccc(Br)c2)S(=O)(=O)c2ccc(C)cc2)CC1 (stereo not drawn) | inactive: 5.61% | –
CCc1ccccc1NC(=O)c1c(NC(=O)c2ccccc2)sc2c1CCCC2 | inactive: 8.07% | –
Cc1ccc(-c2nnc(SCc3ccccc3C)o2)cc1 | – | inactive
O=C(COc1ccc(Cl)cc1)Nc1ccc(-c2nc3ccccc3s2)c(O)c1 | inactive: 5.42% | –
COc1ccc(-c2nc(C)c(CCNC(=O)C(=O)Nc3ccccc3OC)s2)cc1 | – | inactive
COc1ccc(CNC(=O)CCn2cccn2)cc1 | inactive: 6.71% | –
Cc1ccccc1C(=O)n1nc(-c2ccco2)nc1NCc1ccc(Cl)cc1 | inactive: -1.8% | –
COc1ccc(CCn2cc3c(c2-c2ccc(Br)cc2)c(=O)n(C)c(=O)n3C)cc1OC | – | inactive
Cc1ccc2nc(N3CCN(c4cccc(Cl)c4)CC3)c(-n3nc(C)cc3C)nc2c1 | inactive: 1.62% | –

SMILES | activity change, negative = inhibition | outcome
Cc1cccc(Oc2nc3c(C)cccn3c(=O)c2/C=C(\C#N)c2nc3ccccc3[nH]2)c1 | inactive: 5.7% | –
CCOC(=O)C1=C(CN2CCC(C)CC2)NC(=O)NC1c1ccc(F)cc1 (stereo not drawn) | inactive: 6.32% | –
Cc1cc(C)c2c(=O)cc(CSCC(=O)Nc3ccccc3Cl)[nH]c2c1 | inactive: 6.87% | –
Cc1ccc(-c2cc3ncc4c(n3n2)-c2cc(C)ccc2OC4)cc1 | inactive: 9.34% | –
COc1ccc(OC)c2sc(N3CCN(C(=O)C(C)(C)C)CC3)nc12 | inactive: 4.78% | –
COc1cc(Cl)c(NC(=O)CCS(=O)(=O)c2cc3c(cc2Cl)NC(=O)CO3)c(OC)c1 | inactive: -2.64% | –
CS(=O)(=O)c1ccc(-c2nnc(NC(=O)c3ccc4c(c3)OCCO4)o2)cc1 | inactive: 11.3% | –
CCN(CC)CCNC(=O)c1ccc(Cn2c(SCc3ccccc3)nc3cccnc32)cc1 | inactive: -1.6% | –
COc1ccc(CNS(=O)(=O)c2cnc(N)nc2)c(OC)c1 | inactive: 9.28% | –
COc1ccc(CNC(=O)c2ccc(N3CCCC3)c(NC(=O)NCc3ccc(F)cc3)c2)cc1 | inactive: 3.89% | –
Cc1cccc(C)c1OCC(=O)NCC1(N(C)C)CCCCC1 | inactive: 12.4% | –
CNC(=O)c1c(NC(=O)c2ccc(S(=O)(=O)N3CCC(C)CC3)cc2)sc2c1CCC2 | inactive: -10.8% | –
Cc1ccc(N2C(=O)CSC23C(=O)N(CC(=O)NCc2ccccc2)c2ccccc23)cc1C (stereo not drawn) | inactive: -1.67% | –
COCCCNC(=O)c1ccc(NC(=O)c2nsc3ccccc23)cc1 | – | inactive
COc1ccccc1CNC(=O)C1CCC(CNS(=O)(=O)c2ccc3c(c2)CCCC(=O)N3)CC1 (stereo not drawn) | – | inactive
CC(=O)c1ccc(NC(=O)Cn2cc(S(=O)(=O)Cc3cccc(Cl)c3)c3ccccc32)cc1 | inactive: 0.234% | –
CC(C)(O)[C@H]1CC[C@@](C)([C@H]2[C@@H](O)C[C@@]3(C)[C@@H]4C[C@H](O[C@@H]5O[C@H](CO)[C@@H](O)[C@H](O)[C@@H]5O)[C@H]5C(C)(C)[C@@H](O[C@@H]6OC[C@@H](O)[C@H](O)[C@@H]6O)CC[C@@]56C[C@@]46CC[C@]23C)O1 | inactive: 4.8% | –
CCOc1cc(CNC(=O)c2sc3ncnc(N(C)C4CCCCC4)c3c2C)ccc1OC | inactive: -1.52% | –
CCC1CN(C(=O)N2CCC(C(=O)NCCN(CC)CC)CC2)c2cc(C)ccc2O1 (stereo not drawn) | – | inactive
CCc1nc2ccccc2n1CCCCOc1ccc(C)cc1 | inactive: 2.61% | –
CCOC(=O)c1scc(-c2ccccc2)c1S(=O)(=O)Nc1cc(OC)cc(OC)c1 | – | inactive
